In publication PMC12136788:
This is one part of the list.

T1: UNK ZnF1-6 (called full-length) (human, UniProt Q9C0B0 30-357)
T1 sequence: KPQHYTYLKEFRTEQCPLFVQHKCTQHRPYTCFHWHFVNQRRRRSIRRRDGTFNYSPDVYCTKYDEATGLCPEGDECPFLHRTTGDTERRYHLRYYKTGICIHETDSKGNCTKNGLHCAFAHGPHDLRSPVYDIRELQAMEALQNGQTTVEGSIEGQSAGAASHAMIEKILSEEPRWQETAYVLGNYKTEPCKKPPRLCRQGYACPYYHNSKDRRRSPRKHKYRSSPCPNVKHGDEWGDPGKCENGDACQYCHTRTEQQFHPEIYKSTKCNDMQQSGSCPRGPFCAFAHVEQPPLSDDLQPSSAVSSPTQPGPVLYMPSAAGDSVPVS

B1: chr6:43012266:43012370:-|3pUTR|ENSG00000124733|unk|total|mutant (ssRNA)
RNA: GGGAGUUCUACAGUCCGACGAUCGAGACCCACUUUAUUCAGUUCUGUACAUAUGGGGACAUCGGUCCAAGCCCAACCCACCUCCGCAUGUAUCACUCUGUGGAGAAUAAAGCACCCUAUGUACACAGCCAAAAGCCGCACUGCCAACAGAGGAUUGAGCAUCA
B2: chr13:35475095:35475222:-|CDS|ENSG00000180660|unk|total|mutant (ssRNA)
RNA: GGGAGUUCUACAGUCCGACGAUCGCUGCAACUUAUCUCCUGCCUGCAGUGCCGGCGGUGUCCCCACUACUUUCUACCGAACUCCGAUCUGUUUCAAGGCAAACCUCACUCAGCUCUGGAAAACGCUGCCAAACAAACGUGGCGCAACAGAGGAUUGAGCAUCA
B3: chr10:69104613:69104714:+|3pUTR|ENSG00000122862|unk|total|mutant (ssRNA)
RNA: GGGAGUUCUACAGUCCGACGAUCACAUAUUUUACAGGGUGGAGUGUACUAUAUACUAUUACCUUUGAAUGUGUUUGCAGAGCCCGUGGAUGUGUUUGUCUACAAGUAUGAUUGCUGUUACAUAACACCCCAAAUUAACUCCCACAACAGAGGAUUGAGCAUCA
B4: chr3:105576037:105576138:+|3pUTR|ENSG00000170017|msi1|FALSE|unique (ssRNA)
RNA: GGGAGUUCUACAGUCCGACGAUCCUCCGUUUAAUAAAAGCUUCCGUAGUGCAUUGGUAUGGAUUAAAUGCAUAAAAUAUUCUUAGACUCGAUGCUGUAUAAAAUAUUAUGGGAAAAAAAGAAAAUACGUUAUUUUGCCUCUAACAACAGAGGAUUGAGCAUCA
B5: chr10:72011604:72011705:+|3pUTR|ENSG00000122863|msi1|total|mutant (ssRNA)
RNA: GGGAGUUCUACAGUCCGACGAUCCACCUGCCCGGAGACAGAGGGAGCAGCUGAGGCCUCUCUCCACUGGCCGCCAGCCUCCCCCGCACAAGGGGACCAUUCAGCAAUGAGUGUUUACUCAUGUUCUUUCUUGUUGAUGAGUUCCAACAGAGGAUUGAGCAUCA
B6: ENSG00000198589:be:win_6951|CDS|ENSG00000198589|bound_else_gene|NA|bound_elsewhere_windowed (ssRNA)
RNA: GGGAGUUCUACAGUCCGACGAUCGCAAGGAGGCAAAUUUGAUCAUGCAGAUCGAACUUUUUCAUCAAUUUCCAGAGCUUGGCGAAACAGUCAGCGUGAUACCUCUGAUAUUAAGGAGUUGAUCCCUGAAUUUUAUUAUCUCCCCAACAGAGGAUUGAGCAUCA
B7: ENSG00000107863:be:win_2501|CDS|ENSG00000107863|bound_else_gene|NA|bound_elsewhere_windowed (ssRNA)
RNA: GGGAGUUCUACAGUCCGACGAUCAGGUCCCCUCCAUAGCAACAGUUCCUCCUUGCCUCACAACUUCAGCUCCAUUAAUUCGCCGUCAGCUCUCACAUGACCACGAAUCUGUUGGCCCUCCUAGCCUGGAUGCUCAGCCCAACUCAACAGAGGAUUGAGCAUCA
B8: ENSG00000198589:be:win_251|CDS|ENSG00000198589|bound_else_gene|NA|bound_elsewhere_windowed (ssRNA)
RNA: GGGAGUUCUACAGUCCGACGAUCUCAUUAUCCAAGAAGGUGAGAGUAUUAACUGCAUGGUGGACCUACUGGAAAAAUGUGACAUUACGUGCCAAGCAGAAGUCUGGAGCAUGUUUACAGCCAUUCUGAAGAAAAGCAUACGGACAACAGAGGAUUGAGCAUCA
B9: chr3:41225420:41225524:+|CDS|ENSG00000168036|unk|total|mutant (ssRNA)
RNA: GGGAGUUCUACAGUCCGACGAUCCAUGCGUUCUCCUCAGAUGGUGUCUGCUAUUGUACGUACCAUGCAGAAUACAAAUGAUGCCGAAACAGCUCGUUGUACCGCUGGGACCUUGCAUAACCUUUCCCAUCAUCGUGAGGGCUUCAACAGAGGAUUGAGCAUCA
B10: ENSG00000127954:stop:overlap|stop_codon|ENSG00000127954|stop_codon|NA|stop_codon (ssRNA)
RNA: GGGAGUUCUACAGUCCGACGAUCCAUGUGUAGACAACACCCUUACAAGGAUCCGCCAGGGCUGGGAAAGGAACUCAAAACACUAGAAAAAGCAUUGAAUGGAAAAUCAAUAUUUAAAACAAAGUUCAAUUUAGCUGGAUUUCUCAACAGAGGAUUGAGCAUCA
B11: chr1:67413009:67413110:-|3pUTR|ENSG00000142864|unk|total|mutant (ssRNA)
RNA: GGGAGUUCUACAGUCCGACGAUCCUGAAUUUUAUCUGUUUUAAAAAUGAACUUCUCCCGCUACACAGAAGUAACAAAUAUGGCCGUCAGUUUUGUAUUCCGAAAUGUAUUGGCCGCAGGGAUGUUUUCAUAAUUUUCAGAGAUCAACAGAGGAUUGAGCAUCA
B12: chr9:19286831:19286940:+|CDS|ENSG00000137145|unk|FALSE|unique (ssRNA)
RNA: GGGAGUUCUACAGUCCGACGAUCAUUCCAGGAUGUGAAGUGAUCCUAGCCACACCCUAUGGUCGCUGUGCCAAUGUCAACAAUAGUUCAACUACUUCACAAAGAAUCUUUAUCACUUAUCGAAGGGCUCCUCCAGUUCGACCCCAACAGAGGAUUGAGCAUCA
B13: chr17:49055506:49055607:+|3pUTR|ENSG00000159217|unk|FALSE|unique (ssRNA)
RNA: GGGAGUUCUACAGUCCGACGAUCCACUUCCCGGCUGUGGGGGCUGGGGAGCCACUUGUAACAUUUCUGUGCAGAUUUUAUGUUAGCCACUGCUAUGUAAAAGCACGUUCAAAAUGAAUUUCAGCAGAUUAUGUGUUACCAUAACAACAGAGGAUUGAGCAUCA
B14: chr4:113336597:113336699:+|CDS|ENSG00000145362|unk|FALSE|bound_elsewhere (ssRNA)
RNA: GGGAGUUCUACAGUCCGACGAUCACCUAUGCACAGUGAGCUGGUUAAGAAGAUCCUAGGCAACAAAGCUACCUUCAGCCCUAUAGUCACUUUGGAACCUAGAAGAAGAAAAUUCCACAAACCAAUUACCAUGACCAUUCCUGUCAACAGAGGAUUGAGCAUCA
B15: chr14:81473690:81473791:-|3pUTR|ENSG00000071537|msi1|total|mutant (ssRNA)
RNA: GGGAGUUCUACAGUCCGACGAUCCAGUGUUUUGGAAGUAUGCAUGCAGGCCUAUAAAUGAAAAACACAAUUCUUUAUGUGUACCGCAUGUGUAUUAAUGUCUAACUACAUACGCAAAAACUUCCUUUACAGAGGUUCGGACUACAACAGAGGAUUGAGCAUCA
B16: chr4:138167974:138168075:-|3pUTR|ENSG00000151012|msi1|total|mutant (ssRNA)
RNA: GGGAGUUCUACAGUCCGACGAUCCACAAAAUCUGCAUUGUCCAUGUGAGUAAAGUAAAAUAAUUCCUGUUAUUUUUUUCUGUCCGAAAUAAGUAUGGAGGAUAUGUUUUUAAAAAUUUAUGAGUUAAUUGAAAUAUCCAUAUACAACAGAGGAUUGAGCAUCA
B17: chr6:21598408:21598509:+|3pUTR|ENSG00000124766|msi1|total|mutant (ssRNA)
RNA: GGGAGUUCUACAGUCCGACGAUCCGUUAAGGGUUUUUGUUUUUAAACUUUUUUUUGCCAUCCAUCCUGUGCAAUAUGCCGUGCCGAAUAUUUGUCUUAAAAUUCAAGGCCACAAAAACAAUGUUUGGGGGAAAAAAAAGAAAACAACAGAGGAUUGAGCAUCA
B18: chr12:100625254:100625355:+|3pUTR|ENSG00000139354|unk|FALSE|unique (ssRNA)
RNA: GGGAGUUCUACAGUCCGACGAUCAUAUGUAUUAAAUAUGGAGUUCAUAUACCUGCUAAUAUCAACGGUGGUGCUCUUACUAUUAGUUAAUUGCAUUUUGGUUAAAAAAAAAAAAGCAACAGUUUGGCACUUGUCCUACAAAAGCAACAGAGGAUUGAGCAUCA
B19: chr2:189754195:189754303:-|CDS|ENSG00000128694|unk|FALSE|unique (ssRNA)
RNA: GGGAGUUCUACAGUCCGACGAUCCCAGAGUGCUCCACCAUGAGUGGUGGGAAAGCCAUAGAACAUUUGGCCAAACAAGGAAAUAGAUUUCAUUUUGACAUCAAACCUCCCUUGCAUCAUGCUAAAAAUUGUGAUUUUUCUUUUCAACAGAGGAUUGAGCAUCA
B20: chr11:134247321:134247422:+|3pUTR|ENSG00000151502|unk|total|mutant (ssRNA)
RNA: GGGAGUUCUACAGUCCGACGAUCCCUUUUCAGAGCAUGAGGUCAGGCUCUGUAUCCCUCCUUUUCCCCGCUGAUAUUCUAACCCGAAGCAUUUGUCAAUUCCUUUGCCUCCCAACUGACAACACACGUUCAUUUUCCAACCUUCAACAGAGGAUUGAGCAUCA
B21: chr6:21593967:21594078:+|5pUTR|ENSG00000124766|unk|total|mutant (ssRNA)
RNA: GGGAGUUCUACAGUCCGACGAUCUCCGUGCCGAUUCCGCCCACAGAGAGUCCUGGAGCCACAGUCUUUUUUGCUUUGCAUUGCCGGAGAGGGACUAAGUGCCCGAGACUAUGUCGCUUUCCUGAGCUACCGAGAGCGCUCGUGCAACAGAGGAUUGAGCAUCA
B22: chr5:95604386:95604487:+|3pUTR|ENSG00000164291|msi1|FALSE|unique (ssRNA)
RNA: GGGAGUUCUACAGUCCGACGAUCCCUGCCAUCCAGUUCCCCCUCCAAGAAGCAAGUACCGAAACCACCUGCUUACGCAUUUUUAGAGAUUGGCCACAAAUUUAUAAACAAAUGUAUAUAUUCCUUUCCCCCUACACAAACGGUCAACAGAGGAUUGAGCAUCA

Biological target: T1, UNK ZnF1-6 (called full-length)
Assay: nsRBNS (natural sequence RNA bind-n-seq); RBNS binding buffer (assumed for nsRBNS): 25 mM Tris pH 7.5, 150 mM KCl, 3 mM MgCl2, 0.01% Triton X-100, 500 ug/ml BSA, 20 U/ml SUPERase-In, 4 C; UNK is unkempt and MSI1 is Musashi-1; names of the RNAs are library labels; protein concentration not given here; high values mean tight binding

Binder | binding signal
B1 | 0.626 enrichment R
B2 | 0.644 enrichment R
B3 | 0.289 enrichment R
B4 | 1.49 enrichment R
B5 | 0.585 enrichment R
B6 | 0.401 enrichment R
B7 | 1.11 enrichment R
B8 | 0.43 enrichment R
B9 | 0.549 enrichment R
B10 | 0.394 enrichment R
B11 | 0.544 enrichment R
B12 | 1.1 enrichment R
B13 | 0.537 enrichment R
B14 | 0.749 enrichment R
B15 | 0.563 enrichment R
B16 | 0.638 enrichment R
B17 | 0.434 enrichment R
B18 | 0.986 enrichment R
B19 | 0.534 enrichment R
B20 | 0.668 enrichment R
B21 | 0.735 enrichment R
B22 | 1.43 enrichment R
